Screen size: about 310,000 compounds; about 2,200 (0.71%) showed an effect of 50% or more. Effects have a minus sign here. Some of the results follow.
Each compound was assayed against human ether-à-go-go-related gene (hERG) potassium channel (human, UniProt Q12809) (assay: primary screen, population patch clamp on CHO cells stably expressing hERG).
Sequence of human ether-à-go-go-related gene (hERG) potassium channel (Q12809 whole entry, looked up): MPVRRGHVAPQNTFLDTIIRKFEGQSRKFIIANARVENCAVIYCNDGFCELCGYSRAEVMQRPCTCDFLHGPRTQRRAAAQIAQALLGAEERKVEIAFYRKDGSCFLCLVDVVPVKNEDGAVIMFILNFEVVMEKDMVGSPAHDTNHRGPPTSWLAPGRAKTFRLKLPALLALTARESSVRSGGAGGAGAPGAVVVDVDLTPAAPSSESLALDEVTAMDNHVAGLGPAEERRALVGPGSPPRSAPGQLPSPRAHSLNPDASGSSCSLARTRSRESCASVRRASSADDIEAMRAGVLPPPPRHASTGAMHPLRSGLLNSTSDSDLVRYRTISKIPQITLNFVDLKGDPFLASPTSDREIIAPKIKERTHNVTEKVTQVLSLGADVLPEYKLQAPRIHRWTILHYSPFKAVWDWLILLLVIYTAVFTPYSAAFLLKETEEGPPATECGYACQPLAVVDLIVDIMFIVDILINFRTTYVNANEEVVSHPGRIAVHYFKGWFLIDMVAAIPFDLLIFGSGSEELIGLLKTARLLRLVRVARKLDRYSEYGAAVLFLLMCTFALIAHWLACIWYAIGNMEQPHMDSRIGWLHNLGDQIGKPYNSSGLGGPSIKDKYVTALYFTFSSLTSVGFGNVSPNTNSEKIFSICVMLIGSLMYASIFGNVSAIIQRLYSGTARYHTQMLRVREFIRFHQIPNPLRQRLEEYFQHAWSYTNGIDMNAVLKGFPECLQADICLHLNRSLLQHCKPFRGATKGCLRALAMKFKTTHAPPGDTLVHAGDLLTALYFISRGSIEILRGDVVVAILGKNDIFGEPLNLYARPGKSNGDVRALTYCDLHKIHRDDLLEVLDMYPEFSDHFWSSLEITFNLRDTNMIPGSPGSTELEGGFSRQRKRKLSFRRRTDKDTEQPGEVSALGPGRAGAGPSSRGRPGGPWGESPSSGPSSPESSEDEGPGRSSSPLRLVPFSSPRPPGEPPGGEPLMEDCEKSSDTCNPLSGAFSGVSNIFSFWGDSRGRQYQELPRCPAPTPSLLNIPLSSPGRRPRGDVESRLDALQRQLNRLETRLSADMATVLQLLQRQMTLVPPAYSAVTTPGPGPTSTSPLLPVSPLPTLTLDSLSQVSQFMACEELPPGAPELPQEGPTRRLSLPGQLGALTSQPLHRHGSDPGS

Structure (SMILES)	hERG current change (%, negative = inhibition) at 1uM [%]
CCOc1ccccc1NC(=O)c1nc[nH]c1C(=O)Nc1ccccc1OCC	14.9
NC(=O)C1CCN(C(=O)CCC(=O)N2CCOc3ccc(Cl)cc32)CC1	13.4
CCOC(=O)C(=O)Nc1sc(C(=O)N2CCOCC2)c(C)c1C#N	9.78
CC(C)c1ccc(OCc2cccc(C(=O)N/N=C/c3cccnc3)c2)cc1	2.75
Cc1cccc(-c2cc3nc4c(c(N5CCC6(CC5)OCCO6)n3n2)CCCC4)c1	16.8
Cc1ccc(CN2CCSc3ccc(C(=O)N4CCOCC4)cc32)cc1	15.5
O=c1[nH]c(/C=C/c2ccc([N+](=O)[O-])cc2)c([N+](=O)[O-])c(=O)[nH]1	13.5
COCCn1c(C)cc2c(c1=O)C(c1ccco1)C(C#N)=C(N)O2 (stereo not shown)	14.1
CCOc1cccc(C(=O)NC(=S)Nc2ccc(N3CCN(CC)CC3)cc2)c1	-1.79
CC1CCCN(C(=O)CSc2nnc(-c3cccs3)o2)C1 (stereo not shown)	15.8
COc1ccccc1N/C=C/C(=C(C#N)C#N)N(C)C	8.57
CCSc1cc(C)nc2c(-c3ccccc3)cnn12	8.93
CCn1cc(C(=O)NCC(C)C)c(=O)c2cc(F)c(N3CCN(C)CC3)cc21	9.68
CCOc1ccc(NC(=O)c2ccccc2NC(=O)CN2CCN(C(C)=O)CC2)cc1	8.68
NC(=O)CCC(NS(=O)(=O)c1ccc(Cl)cc1)C(=O)NCC1CCCCC1 (stereo not shown)	14.7
CCCCn1c(O)c(C(C)=Nc2ccc3c(c2)CCC3)c(=O)[nH]c1=O	8.9
COc1ccc(OC)c2sc(NC(=O)c3ccc(S(=O)(=O)N(C)C)cc3)nc12	7.51
CCOC(=O)N1CCN(C(=S)NC(=O)C2CCCC2)CC1	0.69
Cc1ccc(N2C(=O)Nc3ccc(Br)cc3C2(O)C(=O)NCCCN(C)C)cc1C (stereo not shown)	4.62
CCCNC(=O)C(Cc1cccc(Cl)c1)NC(=O)c1ccccc1 (stereo not shown)	14.7
COc1cc(NC(=O)CSCC(=O)Nc2cccc(C(F)(F)F)c2)c(Cl)cc1Cl	13.7
CCOC(=O)C1CCN(C(=O)CSCCSCC(=O)N2CCC(C(=O)OCC)CC2)CC1	-10.2

Structure (SMILES)	hERG current change (%, negative = inhibition) at 1uM [%]
O=C(Cn1nc(Cc2cccnc2)c2ccccc2c1=O)NCC1CCCO1 (stereo not shown)	14.4
CCSc1nnc(NC(=O)CC)s1	8.29
Cc1nnc(SC(C)C(=O)NC2CCCc3ccccc32)n1-c1ccccc1 (stereo not shown)	9.46
O=C(CN1C(=O)c2ccccc2S1(=O)=O)c1ccc(O)c(O)c1	11.2
CC(C)CC(C(=O)OCC(=O)c1c(N)n(C)c(=O)n(C)c1=O)N1C(=O)C2CC=CCC2C1=O (stereo not shown)	4.11
O=S(=O)(c1ccccc1)N1CCN(C(=S)NCCc2ccccc2)CC1	14.4
COCc1cc(C)nc(SCC[N+](C)(C)CC(=O)Nc2cccc(C(F)(F)F)c2)c1C#N.[Cl-]	13
CCOc1cc(/C=C2/C(=N)N3N=C(CC)SC3=NC2=O)ccc1OC(=O)c1ccco1	23.7
C1CN(c2nc3nonc3nc2N2C[C@H]3CC[C@H]2C3)CCS1	8.41
CC(C)n1cc(CN2CCCC(C(=O)Nc3ccccc3Oc3cccnc3)C2)cn1 (stereo not shown)	-19.5
COC(=O)[C@H](CCSC)NC(=O)NC1CCN(Cc2ccccc2)CC1	-14.6
COc1ccccc1NC(=O)CN1C(=O)C(C)SC(C)C1=O (stereo not shown)	14
CCC(C(=O)N1CCN(c2ccccc2OC)CC1)c1ccccc1 (stereo not shown)	14.8
CCOc1ccc(OCC(=O)NCCc2nc3ccccc3[nH]2)cc1	3.28
COc1ccc(C2c3ccc4ccccc4c3Oc3ncn(CCN4CCOCC4)c(=N)c32)cc1 (stereo not shown)	-42.6
COc1ccc(CNC(=O)CN(c2ccc(OC)cc2)S(=O)(=O)c2c(C)[nH]c(=O)[nH]c2=O)cc1	16.2
Nc1ccc(C2(c3ccc(N)cc3)C(=O)Nc3ccccc32)cc1	3.74
O=C(Nc1ccccc1N1CCCC1)c1cccnc1Cl	6.63
CCOC(=O)N1CCN(C(=O)CSc2ccc(Cl)cc2)CC1	-3.42
Cc1c(C(=O)Nc2ccccc2)sc2ncn(CC(=O)N3CCCCC3)c(=O)c12	1.29
COc1ccccc1CNC(=O)c1ccc(NS(C)(=O)=O)cc1	8.04
C=CCOc1ccccc1CNc1ccc2[nH]c(=O)[nH]c2c1	12.6

Structure (SMILES)	hERG current change (%, negative = inhibition) at 1uM [%]
Cc1cc(/C=C2/SC(=O)N(CC(=O)N3CCOCC3)C2=O)c(C)n1-c1ccccc1F	5.92
CCOC(=O)C1=C(CNC2CCCCC2)NC(=O)NC1c1cc(C)ccc1C (stereo not shown)	11.8
COc1ccccc1NC(=O)Cn1nc(C)n2cccc2c1=O	10.1
CCc1ccc(C2c3[nH]c4ccccc4c3CCN2C(=O)CNC(N)=O)cc1 (stereo not shown)	4.14
CCOc1cc(-c2nc(-c3ccc(C)nc3OCC)no2)cc(OCC)c1OCC	15.6
CCN(CC)C(=O)CSc1nnc(-c2ccncc2)n1N	18.2
CSc1ncccc1C(=O)OCC(=O)NC1CCCC1	9.09
Cc1cc(C)cc(NC(=O)N2CCCN(c3c(Cl)cncc3Cl)CC2)c1	6.97
O=C(CCC1CCN(Cc2ccccc2O)CC1)NC1CC1	7.58
COc1ccc(NS(=O)(=O)c2cccc(C(=O)NCC(c3ccco3)N3CCCCC3)c2)cc1 (stereo not shown)	6.24
Cc1ccc(NS(=O)(=O)c2cccs2)c(C)c1	7.06
Cc1cc2ccccc2n2c(SCC(=O)Nc3ccc(S(=O)(=O)N4CCC(C)CC4)cc3)nnc12	20.2
Cc1ccc(S(=O)(=O)NCCSCc2ccccc2)cc1	7.87
O=C(Nc1cccnc1Cl)C1c2ccccc2Oc2ccccc21	2.26
Cc1cnc(C(=O)OCC(=O)NCc2cccc(Cl)c2)cn1	5.46
O=C(NC1CCCCC1)c1cc(C2CC2)on1	14
Cc1cc(C)c(NC(=O)c2oc3ccccc3c2COc2ccccc2)c(C)c1	2.85
N/C(=N\O)c1ccccc1-n1cccc1	11.2
O=c1[nH]c([N+](=O)[O-])nn1C(c1ccccc1)c1ccccc1	4.19
Cc1n[nH]c(=O)nc1N/N=C/c1ccc(O)c([N+](=O)[O-])c1	-6.33
CCN(CC)CCNC(=O)/C(=C/c1cn(C)c2ccccc12)NC(=O)c1ccc(OC)c(OC)c1	13.2
CC(C)(CC(=O)O)CC(=O)Nc1ccc(Cl)c(Cl)c1	12.7

Structure (SMILES)	hERG current change (%, negative = inhibition) at 1uM [%]
CCOC(=O)N1CCN(C(=O)C2CCN(S(=O)(=O)c3ccc(OC)cc3)CC2)CC1	3.66
CC(C)(C)c1nnc(NC(=O)c2cccs2)s1	11
C/C(=C/c1oc2ccc(O)cc2c1[N+](=O)[O-])N(C)C	6.22
CCOC(=O)c1oc2ccccc2c1NC(=O)c1ccc(S(=O)(=O)N2CCCC2)cc1	-6.45
CC(NC(=O)c1ccc(F)cc1)c1ccc2c(c1)CCCC2 (stereo not shown)	12.8
CCn1c(CCC(=O)N(C)CC(=O)Nc2cccc(F)c2)nc2cc(S(=O)(=O)N(C)C)ccc21	13.7
COc1ccccc1CN1CC(C(=O)NCCC2=CCCCC2)CCC1=O (stereo not shown)	6.11
CC1(C)Cc2nc(Cl)c(C(N)=O)cc2CO1	17.2
O=C(O)COc1ccc(/C=C/C(=O)c2ccc(C3CCCCC3)cc2)cc1	8.08
CN1CCc2c(sc(NC(=O)c3ccc([N+](=O)[O-])o3)c2C(N)=O)C1.Cl	4.48
CC1(C)[C@@H](O)CC[C@]2(C)C3C(O)C=C4[C@H]5C[C@@](C)(CO)CC[C@]5(C)CC[C@]4(C)[C@]3(C)CC[C@@H]12 (stereo partly shown)	15.4
N#C/C(=C\c1ccc(-c2ccc(C(=O)O)cc2)o1)C(=O)Nc1ccc(F)cc1	12.6
COc1ccc(CNC(=O)C2(CC(=O)NC(C)(C)C)CCCC2)cc1	5.32
COc1cc(CC(=O)OCC(=O)Nc2ccc(Cl)c(S(=O)(=O)N(C)C)c2)cc(OC)c1OC	1.18
Cc1ccc(C(=O)c2c[nH]c(C(=O)NCCCN3CCOCC3)c2)cc1	1.28
CCc1ccc(CN(C)CCc2ccccn2)cc1	-34.7
COC(=O)C1=C(c2ccc(C(C)=O)cc2)C[C@@H]2CC[C@H]1N2C(=O)NCC1CC1	9.4
O=C(O)c1ccc(CNc2ccccc2C(=O)O)cc1	11.2
O=C(Nc1ccccc1[N+](=O)[O-])c1nc[nH]c1C(=O)NCCO	7.16
CCOC(=O)N1CCN(CCC(=O)Nc2ccccc2OC)CC1	13.1
CCN(CC)CCNC(=O)COc1ccc(Cl)cc1Cl	-5.78
COc1cccc(N2CCN(C(=S)NCc3ccco3)CC2)c1	-0.97
